This note sets out measurements from article PMC4336329 (PLoS ONE, 2015).

Screen size: about 310,000 compounds; about 2,200 (0.71%) showed an effect of 50% or more. Effects have a minus sign here. This is one part of the list.

This assay deals with human ether-à-go-go-related gene (hERG) potassium channel (human, UniProt Q12809). The experiment in a line: primary screen, population patch clamp on CHO cells stably expressing hERG.
human ether-à-go-go-related gene (hERG) potassium channel, sequence (Q12809 whole entry, looked up): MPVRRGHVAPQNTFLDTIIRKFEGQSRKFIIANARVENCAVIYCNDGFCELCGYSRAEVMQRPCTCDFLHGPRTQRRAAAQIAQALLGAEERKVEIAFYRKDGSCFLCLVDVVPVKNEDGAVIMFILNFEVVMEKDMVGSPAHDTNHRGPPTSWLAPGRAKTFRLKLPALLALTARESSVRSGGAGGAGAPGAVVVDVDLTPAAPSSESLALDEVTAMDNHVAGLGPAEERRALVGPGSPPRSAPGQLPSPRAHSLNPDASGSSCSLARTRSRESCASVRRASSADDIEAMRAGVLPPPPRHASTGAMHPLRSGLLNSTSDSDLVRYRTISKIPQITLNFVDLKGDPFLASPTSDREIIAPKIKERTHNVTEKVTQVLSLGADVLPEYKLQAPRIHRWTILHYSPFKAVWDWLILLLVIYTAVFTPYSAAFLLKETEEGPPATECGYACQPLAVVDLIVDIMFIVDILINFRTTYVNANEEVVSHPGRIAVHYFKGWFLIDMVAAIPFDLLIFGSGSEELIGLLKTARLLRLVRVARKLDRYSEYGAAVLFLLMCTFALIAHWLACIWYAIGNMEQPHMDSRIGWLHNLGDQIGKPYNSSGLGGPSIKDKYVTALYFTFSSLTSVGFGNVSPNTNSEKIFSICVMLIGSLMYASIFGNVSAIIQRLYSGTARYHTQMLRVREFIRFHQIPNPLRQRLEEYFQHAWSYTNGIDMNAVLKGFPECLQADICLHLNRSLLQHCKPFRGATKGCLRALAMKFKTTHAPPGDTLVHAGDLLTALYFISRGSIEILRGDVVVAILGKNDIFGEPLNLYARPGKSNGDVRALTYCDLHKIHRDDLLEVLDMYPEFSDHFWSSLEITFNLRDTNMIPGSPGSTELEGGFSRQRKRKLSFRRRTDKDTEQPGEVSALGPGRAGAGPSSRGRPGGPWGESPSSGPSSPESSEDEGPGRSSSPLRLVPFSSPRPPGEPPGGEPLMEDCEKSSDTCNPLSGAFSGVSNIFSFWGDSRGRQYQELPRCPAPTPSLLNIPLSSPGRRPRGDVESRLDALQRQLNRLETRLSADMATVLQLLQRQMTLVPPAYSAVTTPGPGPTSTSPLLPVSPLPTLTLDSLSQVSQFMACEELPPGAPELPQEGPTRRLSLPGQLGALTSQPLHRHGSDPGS
For `O=C(NC1CC2CCCC(C1)N2S(=O)(=O)c1ccccc1)c1ccccc1` (stereo not drawn), the “hERG current change (%, negative = inhibition) at 1uM” value was -9.46%.
The same measure for `COc1ccc(-n2c(C)c(C)c3c(NCCO)ncnc32)cc1`: 13.9%.
Regarding `COc1ccc(N2CCN(C(=O)/C(C#N)=C/c3ccccc3)CC2)cc1`, the “hERG current change (%, negative = inhibition) at 1uM” value amounted to 6.04%.
The same measure for `CC(C)CCn1c(=O)c2ccccc2n2c(CN3CCCC3)nnc12`: 12.2%.
To `O=C(COC(=O)c1cc(S(=O)(=O)NCc2ccccc2)ccc1O)c1cc2ccccc2o1` belongs 13.3%; to `CC(C)c1ccc(-n2c(O)c(C=NCCN3CCNCC3)c(=O)[nH]c2=S)cc1`, 24.2%; to `COc1ccc(C(=O)COC(=O)/C=C/c2ccccc2)cc1`, 6.38%.
In the case of `CN(CCOc1ccc(Cl)cc1)CC(=O)Nc1ccc(OC(F)(F)F)cc1`, the “hERG current change (%, negative = inhibition) at 1uM” value is 14.1%.
The same measure for `O=C(OC1CCOC1=O)c1cncc(Br)c1` (stereo not drawn): -12%; for `Cc1cc(C(=O)N/N=C/c2ccc[nH]2)n[nH]1`: 13.9%.
Turning to `COc1ccccc1N1CCN(C(=O)Cn2nnc(-c3ccncc3)n2)CC1`, the “hERG current change (%, negative = inhibition) at 1uM” value is reported as -7.1%.
As to `Cc1c(N=C2SC(CC(=O)Nc3ccccc3)C(=O)N2CCN2CCOCC2)c(=O)n(-c2ccccc2)n1C` (stereo not drawn), the “hERG current change (%, negative = inhibition) at 1uM” value is given as 11.2%.
The same measure for `O=C(c1ccc2c(c1)OCO2)N1CCN=C1SCc1ccccc1`: -5.15%; for `O=C(COC(=O)C1CCN(S(=O)(=O)c2cccs2)CC1)NCc1ccccc1`: -5.11%.
To `NC(=O)c1nc(-c2ccco2)nc2c1[nH]c(=O)n2-c1ccc(Cl)c(Cl)c1` belongs 2.34%.
In the case of `Clc1ncc(Cn2cccn2)s1`, the “hERG current change (%, negative = inhibition) at 1uM” value came to 10.5%.
The same measure for `COc1ccc(S(=O)(=O)N2CC3CCCN3c3cc(C(F)(F)F)ccc32)cc1` (stereo not drawn): 15.5%; for `COc1ccc(NC2CCCN(C(=O)c3ccc4nccnc4c3)C2)cc1OC` (stereo not drawn): 13.9%.
To `Cc1ccc(C2(c3noc(CN(C)CC4CCCCO4)n3)CCCC2)cc1` (stereo not drawn) belongs 16.6%; to `COC(=O)C(CC(C)C)Oc1ccc2c(C)cc(=O)oc2c1` (stereo not drawn), 7.02%.
On to `O=C(NCCC(=O)N1CCCCCCC1)c1ccc(Br)cc1`, for which the “hERG current change (%, negative = inhibition) at 1uM” value came out at 3.66%.
As for `O=C(O)C(=O)O.O=[N+]([O-])c1ccccc1CNC1CCCCCC1`, the “hERG current change (%, negative = inhibition) at 1uM” value is given as 11.3%.
To `CCc1cccc(C)c1NC(=O)CSc1nnc(C)o1` belongs -4.09%.
To `O=C(NCC(=O)N(c1ccccc1)C(C(=O)NC1CCCCC1)c1cccnc1)c1cccs1` (stereo not drawn) belongs 5.12%.
Take `CC(C)Cn1cc(C(=O)NCCCN2CCC(C)CC2)c2c3ccccc3n(C)c2c1=O`: the “hERG current change (%, negative = inhibition) at 1uM” value is 2.99%.
To `COc1ccc(S(=O)(=O)NNC(=O)c2cccs2)cc1` belongs 7.26%.
The same measure for `Cl.O=[N+]([O-])c1ccccc1/C=N/NC1=NCCCCC1`: -0.325%.
On to `C=CCn1c(=S)[nH]c2nc3c(cc2c1=O)COC(C)(C)C3`, for which the “hERG current change (%, negative = inhibition) at 1uM” value came out at 14%.
As to `CCC1Oc2ccccc2N(CC(=O)NC2CCCC2)C1=O` (stereo not drawn), the “hERG current change (%, negative = inhibition) at 1uM” value was 9.35%.
To `Cc1ccnc(N/C=C/C(=O)c2ccc(Br)cc2)c1` belongs 13%; to `O=C(O)Cc1c[nH]c2cccc(O)c12`, 14%; to `CCCCC1S/C(=N/N=C/c2ccc(OC)cc2)N(Cc2ccc(OC)cc2)C1=O` (stereo not drawn), 15.1%.
To `COc1ccc([C@H]2CC(=O)C=C(C#CC(C)(C)C)C2)cc1` belongs 15.1%; to `NS(=O)(=O)c1ccc(-c2ccc(C=C3C(=O)NC(=O)NC3=O)o2)cc1`, 9.14%; to `NC(=O)NC(c1ccc(Cl)cc1)c1ccccc1Cl` (stereo not drawn), 7.43%.
To `O=S(=O)(c1ccc(Cl)cc1)c1nc(-c2ccco2)oc1N1CCOCC1` belongs -16.7%; to `COc1ccc2c(=O)c(N3C(=O)c4ccccc4C3=O)c(C)oc2c1`, 7.41%; to `c1ccc(SCc2nc3ccccc3[nH]2)cc1`, -3.17%.
`O=S1(=O)CCN2C(=N1)Sc1c2ccc2c1CCCC2`: the “hERG current change (%, negative = inhibition) at 1uM” value worked out at 10%.
The same measure for `C=CCn1c(-c2csc(-c3ccc(Cl)cc3)n2)n[nH]c1=S`: 8.49%; for `Cc1cc(=O)n2nc(N3CCCC(C(=O)N4CCOCC4)C3)sc2n1` (stereo not drawn): -1.57%.
The same measure for `CCOC(=O)c1nc(NCc2ccccc2F)c2ccccc2n1`: 10.1%; for `COc1ccc(CN=Cc2c(C(F)(F)F)[nH][nH]c2=O)cc1`: 14.6%.
For the compound `O=c1c2ccccc2nnn1COc1ccc(Cl)cc1Br`, the “hERG current change (%, negative = inhibition) at 1uM” value was determined as 8.33%.
The same measure for `COCCN(C(=O)CN1CCc2ccccc2C1)c1c(N)n(Cc2ccccc2)c(=O)[nH]c1=O`: -17.4%.
With `CCOCCCNC(=O)C(NC(=O)Cc1cccs1)c1ccc(Cl)cc1` (stereo not drawn), the “hERG current change (%, negative = inhibition) at 1uM” value worked out at 12.6%.
To `NNC(=O)c1cccn(Cc2cccc(C(F)(F)F)c2)c1=O` belongs 12.6%.
As to `Cc1ccc(/C=N/NC(=O)CSc2nc3ccccc3n2C)s1`, the “hERG current change (%, negative = inhibition) at 1uM” value came to 12.4%.
To `CC1CCN(C2=C(NS(=O)(=O)c3ccc(Cl)cc3)C(=O)c3ccccc3C2=O)CC1` belongs 3.98%.
In the case of `Cc1cccc(NC(=O)c2nc[nH]c2C(=O)Nc2ccccc2[N+](=O)[O-])c1`, the “hERG current change (%, negative = inhibition) at 1uM” value is 2.49%.
The same measure for `Cc1ccc(/C(N)=N/OC(=O)CCC2CCCCC2)cc1`: 2.32%.
With `O=C(Nc1ccc(C(=O)O)cc1)/C(=C\c1ccc2c(c1)OCO2)NC(=O)c1ccc(Br)o1`, the “hERG current change (%, negative = inhibition) at 1uM” value stood at 11.8%.
To `O=C(c1cc(-c2ccccn2)nc2ccc(Br)cc12)N1CCN(S(=O)(=O)c2ccccc2)CC1` belongs 16.4%; to `COc1ccccc1CN1Cc2cccc3c2[C@@H](CC1=O)[C@H](O)[C@H](O)C3`, -7.92%.
Consider `Cc1ccc(OCC(=O)NCc2cccs2)cc1`, for which the “hERG current change (%, negative = inhibition) at 1uM” value was found to be 5.36%.
For the compound `CN(C(=O)COC(=O)c1ccccc1Nc1ccccc1)C1CCS(=O)(=O)C1` (stereo not drawn), the “hERG current change (%, negative = inhibition) at 1uM” value came to 4.88%.
As to `CCN1/C(=C\C=C2\C(=O)N(C)C(=S)N2C)Sc2ccccc21`, the “hERG current change (%, negative = inhibition) at 1uM” value is 18.2%.
To `CN(C(=O)c1cccc(C#N)c1)c1nnc(-c2cnccn2)s1` belongs 2.69%; to `COC(=O)c1sc(NC(=O)c2ccc([N+](=O)[O-])o2)c(C#N)c1C`, 12.6%; to `O=C(Nc1cc(C(F)(F)F)ccc1F)C1CCCC1`, 14.2%.
To `CN1CCN(CCCN2c3ccccc3Sc3ccc(S(=O)(=O)N(C)C)cc32)CC1.CS(=O)(=O)O` belongs -20.9%; to `O=C(CN1C(=O)CCC1=O)Nc1nc(-c2cccs2)cs1`, 3.49%; to `Cc1ccc(OCc2ccc(C(=O)N3CCCC3)o2)c([N+](=O)[O-])c1`, -6.76%.
To `Oc1ccc(/C=N/Nc2ccc(C(F)(F)F)cn2)c(O)c1` belongs 14.8%; to `Cc1ccc(OCc2cc(C(=O)N(C)CCc3ccccn3)no2)cc1C`, 0.159%; to `COc1ccc2nc(SCC(=O)N3CCN(c4ccc(F)cc4)CC3)c(C#N)cc2c1`, -3%.
Consider `C=CCN1C(=O)c2ccc(C(=O)N3CCN(S(=O)(=O)c4ccccc4Br)CC3)cc2C1=O`, for which the “hERG current change (%, negative = inhibition) at 1uM” value was -0.0382%.
On to `O=C(CCc1ccccc1)NC1C2CC3CC(C2)CC1C3` (stereo not drawn), for which the “hERG current change (%, negative = inhibition) at 1uM” value was -2.16%.
The same measure for `c1cncc(C2CCCCN2)c1` (stereo not drawn): 9.06%; for `COC(=O)C1CCN(C(=O)Nc2ccc(OC)cc2)CC1`: 2.84%; for `Oc1ccc(/C=N/Nc2ccnc3cc(Cl)ccc23)cc1O`: 9.67%.
The same measure for `COC(=O)c1ccc(C2/C(=C(/O)c3ccc(Cl)cc3)C(=O)C(=O)N2C2CCS(=O)(=O)C2)cc1` (stereo not drawn): 6.83%.
To `COc1ccc(N2C(=O)CC(c3ccc(OC(C)C)cc3)C2=O)cc1` (stereo not drawn) belongs 7.95%; to `CCOC(=O)Cc1csc(SCc2nc3ccccc3c(=O)[nH]2)n1`, -7.14%; to `O=C1C=C(c2ccc(-c3ccccc3)c(F)c2)C[C@@H](c2ccc3c(c2)OCO3)C1`, -2.34%.
With `CCCCOc1ccc(C(=O)Nc2ccc(N3CCN(C)CC3)cc2)cc1`, the “hERG current change (%, negative = inhibition) at 1uM” value was found to be 3.3%.
The same measure for `Cc1ccc(-n2ncc3c2CC(C)(C)CC3NC(=O)CCCN2CCCCC2=O)cc1` (stereo not drawn): 7.71%; for `O=C(O)/C=C/C(=O)NC1CCCCCCCCCCC1`: 10.4%.
Consider `COc1cc(C)nc(N2CCCC(C(=O)Nc3cc(Cl)ccc3OC)C2)n1` (stereo not drawn), for which the “hERG current change (%, negative = inhibition) at 1uM” value worked out at 9.02%.
The same measure for `CN1CCN(C(=S)NC(=O)/C=C/c2ccccc2Cl)CC1`: 12.2%; for `Brc1ccc(C2N3CCCN23)cc1` (stereo not drawn): 9.25%; for `Cc1ccnc(NC(=O)c2cccc3ccccc23)c1`: 6.02%.
In the case of `CC(C)Nc1nc(Cl)nc(NN(C)c2nc(N(C)C)nc(N(C)C)n2)n1`, the “hERG current change (%, negative = inhibition) at 1uM” value stood at 14.3%.
For the compound `COc1ccc(C)cc1NC(=O)CCN1CCN(c2ccccc2)CC1`, the “hERG current change (%, negative = inhibition) at 1uM” value is listed as 3.12%.
Regarding `Cc1ccc(S(=O)(=O)N(CC(=O)NCC2CCCO2)Cc2cccc(C)c2)cc1` (stereo not drawn), the “hERG current change (%, negative = inhibition) at 1uM” value is -22.5%.
With `Cc1ccc(C2CC2/C(=N/O)c2ccc(F)cc2)cc1` (stereo not drawn), the “hERG current change (%, negative = inhibition) at 1uM” value came out at 22.3%.
To `CCOP(=S)(OCC)SCC(=O)NC(C)(CC)C(=O)O` (stereo not drawn) belongs 15.4%.
The same measure for `CCN(CC)CC(=O)N1CCCC(N2CCN(c3cccc(C(F)(F)F)c3)CC2)C1` (stereo not drawn): 9.29%; for `CC(C)(C)NCC(O)COc1cccc2c1CCC(=O)N2.Cl` (stereo not drawn): 6.49%; for `CC(C)(C)NC(=O)c1nn2c(C(F)(F)F)cc(-c3ccccc3)nc2c1Br`: 16.6%.
